From article PMC6160385
No constants are given. Whether binding was seen depends on the method and setting. In cells and extracts the contact can be indirect. Some results given as binding are weak or reduced against the parent protein; the word gives no strength.

Chains of the proteins cited; added tags and fusions are not shown. Lines headed by an entry give the natural chain unless they say otherwise; changes in a name come on top. A line that says so, or that is headed by a name, gives the form on record, which may keep a tag or linker. Residues count along the entry.
Flag-β-TRCP (Q9Y297, form named): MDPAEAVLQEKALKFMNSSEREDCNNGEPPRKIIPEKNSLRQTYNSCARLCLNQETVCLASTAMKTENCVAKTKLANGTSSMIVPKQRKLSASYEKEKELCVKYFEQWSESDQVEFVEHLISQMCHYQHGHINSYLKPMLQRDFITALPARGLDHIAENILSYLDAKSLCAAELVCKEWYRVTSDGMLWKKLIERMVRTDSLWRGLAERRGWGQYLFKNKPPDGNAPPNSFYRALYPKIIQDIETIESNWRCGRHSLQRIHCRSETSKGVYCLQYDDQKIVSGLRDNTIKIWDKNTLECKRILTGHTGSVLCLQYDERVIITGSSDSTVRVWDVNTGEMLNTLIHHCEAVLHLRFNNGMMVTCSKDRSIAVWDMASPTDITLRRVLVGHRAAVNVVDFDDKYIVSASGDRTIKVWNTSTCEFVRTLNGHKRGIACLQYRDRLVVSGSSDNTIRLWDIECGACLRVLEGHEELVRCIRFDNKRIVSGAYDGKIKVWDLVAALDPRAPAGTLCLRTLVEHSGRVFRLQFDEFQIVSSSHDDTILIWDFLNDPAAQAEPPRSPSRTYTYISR
Flag-β-TRCP-R474A (Q9Y297, form named): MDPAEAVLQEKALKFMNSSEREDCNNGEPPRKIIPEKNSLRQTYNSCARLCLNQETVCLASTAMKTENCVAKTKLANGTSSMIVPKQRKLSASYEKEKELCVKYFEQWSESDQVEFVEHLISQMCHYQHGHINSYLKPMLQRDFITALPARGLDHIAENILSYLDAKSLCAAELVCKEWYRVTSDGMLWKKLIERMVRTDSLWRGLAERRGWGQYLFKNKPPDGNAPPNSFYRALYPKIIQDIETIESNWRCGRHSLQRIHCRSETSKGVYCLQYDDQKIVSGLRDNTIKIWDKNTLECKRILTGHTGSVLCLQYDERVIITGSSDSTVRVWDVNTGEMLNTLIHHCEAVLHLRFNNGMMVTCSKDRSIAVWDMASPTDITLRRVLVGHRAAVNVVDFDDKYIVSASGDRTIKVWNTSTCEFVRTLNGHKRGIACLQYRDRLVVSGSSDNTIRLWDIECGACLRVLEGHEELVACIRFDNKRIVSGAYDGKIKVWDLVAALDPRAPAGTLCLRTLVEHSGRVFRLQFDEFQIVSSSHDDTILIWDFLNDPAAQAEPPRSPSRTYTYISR
UniProt Q13617: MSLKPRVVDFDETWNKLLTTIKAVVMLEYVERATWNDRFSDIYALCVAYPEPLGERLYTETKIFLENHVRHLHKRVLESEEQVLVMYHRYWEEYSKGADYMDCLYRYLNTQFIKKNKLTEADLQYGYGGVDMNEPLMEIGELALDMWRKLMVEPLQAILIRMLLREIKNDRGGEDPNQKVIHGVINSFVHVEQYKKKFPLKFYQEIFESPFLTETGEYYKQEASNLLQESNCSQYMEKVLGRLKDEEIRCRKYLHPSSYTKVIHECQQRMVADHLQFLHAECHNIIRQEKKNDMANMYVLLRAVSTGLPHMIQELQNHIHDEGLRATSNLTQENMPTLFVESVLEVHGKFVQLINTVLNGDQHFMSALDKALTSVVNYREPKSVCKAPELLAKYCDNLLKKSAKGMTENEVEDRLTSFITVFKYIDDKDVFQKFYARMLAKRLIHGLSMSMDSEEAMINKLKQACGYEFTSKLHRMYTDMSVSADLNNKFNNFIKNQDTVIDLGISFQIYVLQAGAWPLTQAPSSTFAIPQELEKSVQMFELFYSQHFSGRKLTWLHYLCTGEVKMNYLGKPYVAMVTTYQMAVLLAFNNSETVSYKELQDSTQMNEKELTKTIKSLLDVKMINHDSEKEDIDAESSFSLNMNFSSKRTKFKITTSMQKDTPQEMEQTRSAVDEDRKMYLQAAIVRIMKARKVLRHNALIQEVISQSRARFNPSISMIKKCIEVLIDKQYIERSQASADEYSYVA
UniProt Q93034: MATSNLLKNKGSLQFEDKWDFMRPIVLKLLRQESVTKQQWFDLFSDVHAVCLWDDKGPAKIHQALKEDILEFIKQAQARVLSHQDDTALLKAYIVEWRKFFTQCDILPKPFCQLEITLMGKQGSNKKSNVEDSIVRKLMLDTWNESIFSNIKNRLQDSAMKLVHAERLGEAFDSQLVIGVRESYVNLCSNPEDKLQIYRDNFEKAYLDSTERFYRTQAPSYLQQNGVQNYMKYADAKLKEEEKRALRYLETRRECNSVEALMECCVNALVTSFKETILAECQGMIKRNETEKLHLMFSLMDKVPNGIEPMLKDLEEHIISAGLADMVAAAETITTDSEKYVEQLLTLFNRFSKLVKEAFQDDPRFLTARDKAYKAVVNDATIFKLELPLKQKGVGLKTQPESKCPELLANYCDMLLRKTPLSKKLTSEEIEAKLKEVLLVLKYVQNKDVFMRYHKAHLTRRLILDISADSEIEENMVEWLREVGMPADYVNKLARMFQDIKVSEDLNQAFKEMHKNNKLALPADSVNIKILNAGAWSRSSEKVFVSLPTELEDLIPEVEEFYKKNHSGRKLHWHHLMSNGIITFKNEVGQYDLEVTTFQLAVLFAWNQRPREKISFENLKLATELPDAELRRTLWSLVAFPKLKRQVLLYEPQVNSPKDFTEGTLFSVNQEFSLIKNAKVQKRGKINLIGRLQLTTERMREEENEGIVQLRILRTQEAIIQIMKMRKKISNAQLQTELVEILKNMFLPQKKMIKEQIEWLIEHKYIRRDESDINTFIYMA
UniProt P63208: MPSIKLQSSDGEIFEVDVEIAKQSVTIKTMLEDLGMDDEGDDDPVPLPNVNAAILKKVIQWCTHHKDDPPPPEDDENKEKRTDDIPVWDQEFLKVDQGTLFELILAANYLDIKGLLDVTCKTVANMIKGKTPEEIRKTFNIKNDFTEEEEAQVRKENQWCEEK
UniProt Q13616: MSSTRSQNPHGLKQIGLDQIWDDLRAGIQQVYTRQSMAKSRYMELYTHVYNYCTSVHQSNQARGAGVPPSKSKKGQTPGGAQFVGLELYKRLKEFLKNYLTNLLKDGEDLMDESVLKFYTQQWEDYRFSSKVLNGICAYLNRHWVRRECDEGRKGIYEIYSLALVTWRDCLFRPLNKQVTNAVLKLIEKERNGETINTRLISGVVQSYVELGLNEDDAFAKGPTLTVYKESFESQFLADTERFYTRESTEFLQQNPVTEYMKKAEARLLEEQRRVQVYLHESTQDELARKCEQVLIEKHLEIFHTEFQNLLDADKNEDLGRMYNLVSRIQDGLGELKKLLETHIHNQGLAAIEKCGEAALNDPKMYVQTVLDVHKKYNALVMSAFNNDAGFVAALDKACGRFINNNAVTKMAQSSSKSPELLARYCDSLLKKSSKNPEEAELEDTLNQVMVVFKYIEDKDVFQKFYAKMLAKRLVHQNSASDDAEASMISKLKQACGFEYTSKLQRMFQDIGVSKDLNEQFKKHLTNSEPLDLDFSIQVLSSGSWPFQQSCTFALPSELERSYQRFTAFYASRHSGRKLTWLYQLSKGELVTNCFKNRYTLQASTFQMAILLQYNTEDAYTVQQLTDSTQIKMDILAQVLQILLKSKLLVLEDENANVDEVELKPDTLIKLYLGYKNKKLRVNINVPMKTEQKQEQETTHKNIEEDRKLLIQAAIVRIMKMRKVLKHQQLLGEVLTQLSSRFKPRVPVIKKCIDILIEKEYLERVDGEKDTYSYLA
UniProt Q969H0: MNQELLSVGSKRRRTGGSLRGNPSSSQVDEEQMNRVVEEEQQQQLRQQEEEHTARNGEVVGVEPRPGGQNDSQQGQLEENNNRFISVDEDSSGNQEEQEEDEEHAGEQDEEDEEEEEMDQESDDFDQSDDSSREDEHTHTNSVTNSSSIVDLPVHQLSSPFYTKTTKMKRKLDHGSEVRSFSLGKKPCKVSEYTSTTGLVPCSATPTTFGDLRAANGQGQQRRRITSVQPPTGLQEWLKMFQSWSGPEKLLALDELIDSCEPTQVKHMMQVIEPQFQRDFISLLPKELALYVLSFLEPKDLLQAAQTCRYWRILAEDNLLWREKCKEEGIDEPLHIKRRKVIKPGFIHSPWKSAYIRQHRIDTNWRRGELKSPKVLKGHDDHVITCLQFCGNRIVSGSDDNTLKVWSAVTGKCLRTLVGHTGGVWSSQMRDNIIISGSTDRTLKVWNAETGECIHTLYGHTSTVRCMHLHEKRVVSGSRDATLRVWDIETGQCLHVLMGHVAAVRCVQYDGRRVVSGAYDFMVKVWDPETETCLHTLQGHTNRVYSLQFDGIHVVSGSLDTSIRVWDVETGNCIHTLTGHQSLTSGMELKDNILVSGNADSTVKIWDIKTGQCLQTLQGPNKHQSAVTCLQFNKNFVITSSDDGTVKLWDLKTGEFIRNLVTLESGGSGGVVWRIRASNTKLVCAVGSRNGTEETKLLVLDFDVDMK
UniProt Q68DV7, residues 24-783: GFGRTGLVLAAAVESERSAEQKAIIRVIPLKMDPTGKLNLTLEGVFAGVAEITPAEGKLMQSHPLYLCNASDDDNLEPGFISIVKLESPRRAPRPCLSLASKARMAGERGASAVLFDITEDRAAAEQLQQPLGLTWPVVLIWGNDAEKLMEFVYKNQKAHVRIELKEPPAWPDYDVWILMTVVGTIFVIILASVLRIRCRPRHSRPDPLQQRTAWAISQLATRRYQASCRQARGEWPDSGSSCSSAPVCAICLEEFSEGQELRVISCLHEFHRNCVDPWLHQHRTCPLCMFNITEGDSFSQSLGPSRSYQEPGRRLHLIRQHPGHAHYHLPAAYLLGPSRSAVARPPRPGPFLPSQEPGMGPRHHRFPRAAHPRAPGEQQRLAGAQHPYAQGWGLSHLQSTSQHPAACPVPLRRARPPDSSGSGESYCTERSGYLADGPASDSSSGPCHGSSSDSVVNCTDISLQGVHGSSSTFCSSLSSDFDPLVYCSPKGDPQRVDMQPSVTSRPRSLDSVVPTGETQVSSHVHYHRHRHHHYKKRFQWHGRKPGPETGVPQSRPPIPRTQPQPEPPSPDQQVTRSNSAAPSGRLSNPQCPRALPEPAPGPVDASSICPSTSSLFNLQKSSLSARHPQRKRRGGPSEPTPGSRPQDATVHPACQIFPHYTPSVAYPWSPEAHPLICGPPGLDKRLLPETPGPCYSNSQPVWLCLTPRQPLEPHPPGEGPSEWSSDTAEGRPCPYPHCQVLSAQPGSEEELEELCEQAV
UniProt Q9ULT6, residues 56-936: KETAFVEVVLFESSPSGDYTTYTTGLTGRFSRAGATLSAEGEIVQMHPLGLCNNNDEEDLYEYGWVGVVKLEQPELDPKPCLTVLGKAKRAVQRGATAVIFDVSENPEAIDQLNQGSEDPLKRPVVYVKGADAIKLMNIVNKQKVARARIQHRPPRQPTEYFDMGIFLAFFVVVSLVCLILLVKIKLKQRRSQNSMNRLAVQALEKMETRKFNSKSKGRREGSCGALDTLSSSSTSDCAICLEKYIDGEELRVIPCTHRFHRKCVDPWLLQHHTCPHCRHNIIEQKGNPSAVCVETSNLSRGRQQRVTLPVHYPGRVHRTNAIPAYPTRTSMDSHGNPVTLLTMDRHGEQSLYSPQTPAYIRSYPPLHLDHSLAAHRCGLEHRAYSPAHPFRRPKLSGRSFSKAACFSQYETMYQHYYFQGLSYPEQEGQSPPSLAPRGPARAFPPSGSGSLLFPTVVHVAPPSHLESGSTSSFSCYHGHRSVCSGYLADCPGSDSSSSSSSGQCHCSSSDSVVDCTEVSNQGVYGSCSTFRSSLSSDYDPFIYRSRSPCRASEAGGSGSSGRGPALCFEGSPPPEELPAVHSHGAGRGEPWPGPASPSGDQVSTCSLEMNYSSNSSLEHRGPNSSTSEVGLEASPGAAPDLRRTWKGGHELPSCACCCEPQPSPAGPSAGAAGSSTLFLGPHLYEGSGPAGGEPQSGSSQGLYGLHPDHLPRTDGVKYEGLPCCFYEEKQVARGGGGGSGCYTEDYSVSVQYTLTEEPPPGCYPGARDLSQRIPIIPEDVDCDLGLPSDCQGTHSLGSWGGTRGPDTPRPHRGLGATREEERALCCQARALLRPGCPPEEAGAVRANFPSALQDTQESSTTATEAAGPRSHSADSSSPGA

Experiments:
Flag-β-TRCP [1] = molecular target: Flag-β-TRCP (UniProt Q9Y297); test: co-IP; RNF43 (wild type or DSG degron mutant) with β-TRCP1 (wild type or R474A) in transfected cells; Figs. S1C, S1D and S3B, whose legends were not shown; told together with the co-IPs of Figs. 2C and 4B
Flag-β-TRCP-R474A = Flag-β-TRCP-R474A (UniProt Q9Y297); test: as above
Myc-Cullin 2 = Myc-Cullin 2 (UniProt Q13617); test: co-IP; HeLa cells co-transfected, MG132 10 μmol/L for 12 h before harvest; lysis in EBC buffer, HA- or Flag-conjugated beads 3-4 h at 4°C, washes in NETN buffer; immunoblot
Myc-Cullin 4A = Myc-Cullin 4A (UniProt Q13619); test: as above
Myc-Cullin 3 = Myc-Cullin 3 (UniProt Q13618); test: as above
Flag-β-TRCP [2] = molecular target: Flag-β-TRCP (UniProt Q9Y297); test: as above
Myc-Cullin 5 = Myc-Cullin 5 (UniProt Q93034); test: as above
Myc-Skp1 = Myc-Skp1 (UniProt P63208); test: as above
Myc-Cullin 1 = Myc-Cullin 1 (UniProt Q13616); test: as above
Flag-β-TRCP [3] = molecular target: Flag-β-TRCP (UniProt Q9Y297); test: co-IP; HeLa cells transfected with ZNRF3 wild type or degron mutants and β-TRCP; immunoblot of IP and WCL
[4] = molecular target: β-TRCP1 of the GST pull-down panel of F-box proteins (UniProt Q9Y297); test: pull-down; GST pull-down from HEK293T cells transfected with a panel of F-box proteins and ZNRF3, MG132 10 μmol/L for 12 h; 1 mg lysate with glutathione-sepharose 3-4 h at 4°C, washes in NETN buffer; immunoblot
[5] = molecular target: FBW7 of the GST pull-down panel of F-box proteins (UniProt Q969H0); test: as above
Flag-β-TRCP [6] = molecular target: Flag-β-TRCP (UniProt Q9Y297); test: co-IP; HEK293 cells transfected with ZNRF3 and β-TRCP; cell lysates without phosphatase treatment; immunoblot
Flag-β-TRCP [7] = molecular target: Flag-β-TRCP (UniProt Q9Y297); test: co-IP; HEK293T cells transfected, MG132 10 μmol/L for 12 h before harvest; HA- or Flag-conjugated beads; immunoblot

Row | binding (Flag-β-TRCP [1]) | binding (Flag-β-TRCP-R474A) | binding (Myc-Cullin 2) | binding (Myc-Cullin 4A) | binding (Myc-Cullin 3) | binding (Flag-β-TRCP [2]) | binding (Myc-Cullin 5) | binding (Myc-Skp1) | binding (Myc-Cullin 1) | binding (Flag-β-TRCP [3]) | binding [4] | binding [5] | binding (Flag-β-TRCP [6]) | binding (Flag-β-TRCP [7]) | Substance
1 | binds | binds |  |  |  |  |  |  |  |  |  |  |  |  | HA-RNF43 (from UniProt Q68DV7 24-783)
2 |  |  | no binding | no binding | no binding | binds | no binding | binds | binds | binds | binds | no binding | binds | binds | HA-ZNRF3 (from UniProt Q9ULT6 56-936)
